Laboratory results reported in PubChem BioAssay AID1963851 (Molecular Pharmacology Branch, DTP, NCI, 2024).
The source holds more than one record for some entries. Only these are listed. There may be further records. Values given together are repeats (runs, samples, wells, individuals or studies). Signs of the kind (2×) count equal records among those shown. A date in brackets names the month of the test.

Tested on: 188146-221-R-J1-PDC complex spheroid viability
Test: Anticancer human tumor 188146-221-R-J1-PDC patient-derived colon adenocarcinoma cell line growth inhibition [POLQ]
Conditions: stronger effect = lower value
Method: Multicellular complex tumor spheroid response to Polymerase (POL) inhibitors (novobiocin, ART-558, RP6685) in combination with a variety of drugs and investigational agents in selected tumor cell lines
The POL inhibitors (novobiocin, ART-558, and RP6685) were evaluated both individually and in combination with standard of care and investigational anticancer small molecules within a complex spheroid model of solid tumors. . Complex spheroids include a stromal component modeled by human endothelial cells (HUVEC) and fibroblasts modeled by human mesenchymal stem cells (MSCs). The concentration ranges selected for each drug and investigational agent were based upon clinically achievable concentrations if the clinical Cmax of the agent was known.
Compounds. […] If the clinical Cmax for an agent had not been determined, the highest concentration tested was 10 microM, except for SN-38, which was tested at a high concentration of 1 microM. […]
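Also: spheroids exposed to compounds for seven days; 100% = DMSO vehicle control viability.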

| Compound | viability, T/C (compound alone 0.1 µM) | viability, T/C (compound alone 0.0316 µM) |
| --- | --- | --- |
| COC1C(OC(N)=O)C(O)C(Oc2ccc3c(O)c(NC(=O)c4ccc(O)c(CC=C(C)C)c4)c(=O)oc3c2C)OC1(C)C (configuration not stated) | 90.3, 107, 103 (2×), 102, 101 (3×), 118, 97.3, 104, 98.2% (2×) |  |
| Cc1cccc(N(C)C(=O)C2C(O)CCN2c2nc(C)cc(C(F)(F)F)c2C#N)c1 (configuration not stated) |  | 101 (2×), 102, 98.7, 100, 96.6, 107, 109% [2023-10] and 101, 91.1, 81.1, 96.1, 106% [2023-11] |
